# From the supplement of paper PMC8728848
# Some of the results follow.
# B1: Epa7 (Candida glabrata), Q6DTM6_CANGB (protein)
# chain: MGSSHHHHHHSSGLVPRGSHMKDDYSSFLSNNNLGWTDPTEFPLGCSPNVTTPKNGLSMELYSYDLRKNGSYPCWDAAYLDPNYPRTGYKSHRLLAKVDGVTGNINFYYHATKGCTPEIDHLPASYNYPKPLTMTNFTMLLYGYFKPKVTGYHTFTISADDLLFVNFGAGNAFDCCKRESSADDFGNYQAYAVWGSQTAKDDLTVHLDAGLYYPIRIFFNNREYDAELSLTLKTESDSNPVIDFSDYFYSFDDTKDGCPGLVSYDTS
# What was measured:
# Assay in all cases: glycan array binding signal (z-score within array); higher = stronger binding
# Conditions in all cases: glycan notation: IUPAC condensed, linker removed
# [1] = target: Fuc(a1-2)[Gal(a1-3)]Gal(b1-3)GlcNAc(b1-3)GalNAc
# Summary of the method: (§1)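 Glycan array data were curated from 3228 arrays in the Consortium for Functional Glycomics database and kept only where the protein sequence was available. Glycan names were converted to IUPAC-condensed notation, and columns mapping to the same glycan were averaged. The binding signal is a within-array Z-score, averaged across arrays of the same protein sequence at different concentrations or buffers and across linkers. Negative Z-scores can be read as non-binding.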
# [2] = target: Fuc(a1-2)[Gal(a1-3)]Gal(b1-3)GlcNAc(b1-6)GalNAc
# Summary of the method: as §1
# [3] = target: Fuc(a1-2)[Gal(a1-3)]Gal(b1-4)Glc
# Summary of the method: as §1
# [4] = target: Fuc(a1-2)[Gal(a1-3)]Gal(b1-4)GlcNAc
# Summary of the method: as §1
# [5] = target: Fuc(a1-2)[Gal(a1-3)]Gal(b1-4)GlcNAc(b1-2)Man
# Summary of the method: as §1
# [6] = target: Fuc(a1-2)[Gal(a1-3)]Gal(b1-4)GlcNAc(b1-2)Man(a1-3)[Fuc(a1-2)[Gal(a1-3)]Gal(b1-4)GlcNAc(b1-2)Man(a1-6)]Man(b1-4)GlcNAc(b1-4)GlcNAc
# Summary of the method: as §1
# [7] = target: Fuc(a1-2)[Gal(a1-3)]Gal(b1-4)GlcNAc(b1-2)Man(a1-3)[Fuc(a1-2)[Gal(a1-3)]Gal(b1-4)GlcNAc(b1-2)Man(a1-6)]Man(b1-4)GlcNAc(b1-4)[Fuc(a1-6)]GlcNAc
# Summary of the method: as §1
# [8] = target: Fuc(a1-2)[Gal(a1-3)]Gal(b1-4)GlcNAc(b1-3)GalNAc
# Summary of the method: as §1
# [9] = target: Fuc(a1-2)[Gal(a1-3)]Gal(b1-4)GlcNAc(b1-3)[Fuc(a1-2)[Gal(a1-3)]Gal(b1-4)GlcNAc(b1-6)]GalNAc
# Summary of the method: as §1
# [10] = target: Fuc(a1-2)[Gal(a1-3)]Gal(b1-4)GlcNAc(b1-6)GalNAc
# Summary of the method: as §1
# [11] = target: Fuc(a1-2)[Gal(a1-3)]Gal(b1-4)[Fuc(a1-3)]Glc
# Summary of the method: as §1
# [12] = target: Fuc(a1-2)[Gal(a1-3)]Gal(b1-4)[Fuc(a1-3)]GlcNAc
# Summary of the method: as §1
# [13] = target: Fuc(a1-2)[Gal(a1-3)]Gal(b1-4)[Fuc(a1-3)]GlcNAc(b1-3)GalNAc
# Summary of the method: as §1
# [14] = target: Fuc(a1-2)[Gal(a1-4)]Gal(b1-4)GalNAc
# Summary of the method: as §1
# [15] = target: Fuc(a1-2)[Gal(a1-4)]Gal(b1-4)GlcNAc
# Summary of the method: as §1
# [16] = target: Fuc(a1-2)[GalNAc(a1-3)]Gal
# Summary of the method: as §1
# [17] = target: Fuc(a1-2)[GalNAc(a1-3)]Gal(b1-3)GalNAc(a1-3)[Fuc(a1-2)]Gal(b1-4)GlcNAc
# Summary of the method: as §1
# [18] = target: Fuc(a1-2)[GalNAc(a1-3)]Gal(b1-3)GalNAc(b1-3)Gal(a1-4)Gal(b1-4)Glc
# Summary of the method: as §1
# [19] = target: Fuc(a1-2)[GalNAc(a1-3)]Gal(b1-3)GlcNAc
# Summary of the method: as §1
# [20] = target: Fuc(a1-2)[GalNAc(a1-3)]Gal(b1-3)GlcNAc(b1-2)Man(a1-3)[Fuc(a1-2)[GalNAc(a1-3)]Gal(b1-3)GlcNAc(b1-2)Man(a1-6)]Man(b1-4)GlcNAc(b1-4)GlcNAc
# Summary of the method: as §1
# [21] = target: Fuc(a1-2)[GalNAc(a1-3)]Gal(b1-3)GlcNAc(b1-2)Man(a1-3)[Fuc(a1-2)[GalNAc(a1-3)]Gal(b1-3)GlcNAc(b1-2)Man(a1-6)]Man(b1-4)GlcNAc(b1-4)[Fuc(a1-6)]GlcNAc
# Summary of the method: as §1
# [22] = target: Fuc(a1-2)[GalNAc(a1-3)]Gal(b1-3)GlcNAc(b1-3)GalNAc
# Summary of the method: as §1
# [23] = target: Fuc(a1-2)[GalNAc(a1-3)]Gal(b1-3)GlcNAc(b1-6)GalNAc
# Summary of the method: as §1
# [24] = target: Fuc(a1-2)[GalNAc(a1-3)]Gal(b1-4)Glc
# Summary of the method: as §1
# [25] = target: Fuc(a1-2)[GalNAc(a1-3)]Gal(b1-4)GlcNAc
# Summary of the method: as §1
# [26] = target: Fuc(a1-2)[GalNAc(a1-3)]Gal(b1-4)GlcNAc(b1-2)Man
# Summary of the method: as §1
# [27] = target: Fuc(a1-2)[GalNAc(a1-3)]Gal(b1-4)GlcNAc(b1-2)Man(a1-3)[Fuc(a1-2)[GalNAc(a1-3)]Gal(b1-4)GlcNAc(b1-2)Man(a1-6)]Man(b1-4)GlcNAc(b1-4)GlcNAc
# Summary of the method: as §1
# [28] = target: Fuc(a1-2)[GalNAc(a1-3)]Gal(b1-4)GlcNAc(b1-2)Man(a1-3)[Fuc(a1-2)[GalNAc(a1-3)]Gal(b1-4)GlcNAc(b1-2)Man(a1-6)]Man(b1-4)GlcNAc(b1-4)[Fuc(a1-6)]GlcNAc
# Summary of the method: as §1
# [29] = target: Fuc(a1-2)[GalNAc(a1-3)]Gal(b1-4)GlcNAc(b1-3)Gal(b1-4)GlcNAc
# Summary of the method: as §1
# [30] = target: Fuc(a1-2)[GalNAc(a1-3)]Gal(b1-4)GlcNAc(b1-3)Gal(b1-4)GlcNAc(b1-3)Gal(b1-4)GlcNAc
# Summary of the method: as §1
binder,measurement,setting,value
B1,glycan array binding signal (z-score),[1],-0.232
same,glycan array binding signal (z-score),[2],-0.233
same,glycan array binding signal (z-score),[3],-0.25
same,glycan array binding signal (z-score),[4],-0.199
same,glycan array binding signal (z-score),[5],-0.206
same,glycan array binding signal (z-score),[6],-0.236
same,glycan array binding signal (z-score),[7],-0.241
same,glycan array binding signal (z-score),[8],-0.23
same,glycan array binding signal (z-score),[9],-0.208
same,glycan array binding signal (z-score),[10],-0.096
same,glycan array binding signal (z-score),[11],-0.224
same,glycan array binding signal (z-score),[12],-0.226
same,glycan array binding signal (z-score),[13],-0.201
same,glycan array binding signal (z-score),[14],0.138
same,glycan array binding signal (z-score),[15],-0.084
same,glycan array binding signal (z-score),[16],-0.249
same,glycan array binding signal (z-score),[17],-0.007
same,glycan array binding signal (z-score),[18],-0.24
same,glycan array binding signal (z-score),[19],-0.251
same,glycan array binding signal (z-score),[20],-0.239
same,glycan array binding signal (z-score),[21],-0.232
same,glycan array binding signal (z-score),[22],-0.153
same,glycan array binding signal (z-score),[23],-0.229
same,glycan array binding signal (z-score),[24],-0.25
same,glycan array binding signal (z-score),[25],-0.257
same,glycan array binding signal (z-score),[26],-0.241
same,glycan array binding signal (z-score),[27],-0.241
same,glycan array binding signal (z-score),[28],-0.239
same,glycan array binding signal (z-score),[29],-0.235
same,glycan array binding signal (z-score),[30],-0.22
